{"source": "PubChem BioAssay AID1963576", "about": "(National Center for Advancing Translational Sciences (NCATS), 2024)", "note": "The whole screen tested about 46,000 compounds, of which about 60 (0.1%) were called active. Not shown: some 3% with an inconclusive outcome. The call rests on the fitted dose curve; in most records, active means well fitted inhibition curve with a large enough effect; inconclusive means small, poorly fitted or top-dose-only effect; inactive means no such curve, though single readings can be large or run the other way. The list shows a part of the results."}
{"experiment": "Primary qHTS assay for Inhibitors of ovarian cancer metastasis using an organotypic tumor microenvironment (TME) model; further: nearly all actives have a fitted effect of over 65% in size.", "settings": "SKOV3ip1-GFP adhesion/invasion on 3D omental model, fluorescence; series mostly up to 45.8 µM; activity change, negative = inhibition: at the top concentration", "description": "PI: Ernst Lengyel MD., Ph.D. Department of Obstetrics and Gynecology, Section of Gynecologic Oncology University of Chicago Medicine, Chicago, Illinois. The tumor microenvironment (TME) is a key determinant of metastatic efficiency. We performed a quantitative high-throughput screen (qHTS) of diverse medicinal chemistry tractable scaffolds (44,420 compounds) and pharmacologically active small molecules (386 compounds) using a layered organotypic, robust assay representing the ovarian cancer metastatic TME. This 3D model contains primary human mesothelial cells, fibroblasts, and extracellular matrix, to which fluorescently labeled ovarian cancer cells are added. Initially, 100 compounds inhibiting ovarian cancer adhesion/invasion to the 3D model in a dose-dependent manner were identified. Of those, eight compounds were confirmed active in five high-grade serous ovarian cancer cell lines and were further validated in secondary in vitro and in vivo biological assays. […] Specifically, NCGC00117362 and PP-121 inhibited ovarian cancer adhesion, invasion, and proliferation, whereas milciclib inhibited ovarian cancer invasion and proliferation. […] To evaluate the clinical potential of NCGC00117362, structure - activity relationship studies were performed. […] The three compounds identified have promise as therapeutics for prevention and treatment of ovarian cancer metastasis.\nPROTOCOL TABLE (as described by Inglese J, Shamu CE and Guy RK. 2007) SEQUENCE No. (e.g., 1, 2, 3, etc.); […] (e.g., Cells, Incubation, Reagent, etc.); VALUE; DESCRIPTION. 1; Cells; 4 uL; primary human omental fibroblast, black, clear bottom, low base, 1536-well Aurora assay plate. 2; Incubation; 48 hr; 37C. 3; Cells; 3 uL; 1,200 SKOV3ip1-GFP cells. 4; Compounds; 23nL; acoustic dispenser. 5; Incubation; 2 hr; room temperature. 6; Incubation; 16 hr; 37C. 7; Wash; 5 uL; 1x PBS. 8; Fixing; 5 uL; 4% paraformaldehyde (PFA). 9; Incubation; 15 min; room temperature 10; Wash, 5 uL; 1x PBS. 11; Detection; Fluorescence, excitation filter 488 nm, emission filter 509 nm. NOTES (numbers refer to Sequence numbers above) 1. For the 1,536-well format, 40 primary human omental fibroblasts and 400 mesothelial cells were seeded with 0.02 µg fibronectin and 0.02 µg collagen type I in 4 µL of growth media (2.3 mm2; Supplementary Fig. S1A). 2. Assay plates were incubated for 48 hours at 37 C. 3. After incubation, 1,200 SKOV3ip1-GFP were seeded in 3 µL of serum-free media (growth media minus FBS) on top of primary human omental cells. 4. Compounds or controls were added to each well immediately after the addition of the cancer cells. Compounds were screened in four doses (0.36-46 µmol/L), and the plates contained the positive control (Tomatine) in eight doses (0.035-75 µmol/L) and DMSO (equal volume controls) 5 - 6. The plates were incubated at room temperature for 2 hours and then at 37 degrees C for 16 hours. 7 - 10. Following incubation, the media were aspirated and each well washed with PBS (5 µL) and then fixed with 4% paraformaldehyde (PFA; 5 µL). After 15 minutes, the PFA solution was aspirated, PBS (5 µL) was added. 11. The number of GFP-labeled cells analyzed using a fluorescent cytometer TTP LabTech Acumen eX3 using 488 nm excitation filter and 509 nm emission filter. Data was normalized to the DMSO treated for negative and Tomatine treated wells for positive control. REFERENCES: Inglese J, Shamu CE and Guy RK, Reporting data from high throughput screening of small molecule libraries, Nature Chemical Biology, 2007, 3(8): 438-441. doi.org/10.1038/nchembio0807-438. Yasgar A, Shinn P, Jadhav A, Auld DS, Michael S, Zheng W, Austin CP, Inglese J and Simeonov A, Compound Management for Quantitative High-Throughput Screening. J. Assoc. Lab. Auto., 2008, 13: 79-89. doi: 10.1016/j.jala.2007.12.004."}
{"smiles": "COc1ccc(Nc2ncc(C(=O)Nc3cc(C)ccc3OC)c3ccccc23)cc1", "outcome": "inactive"}
{"smiles": "Cc1ccc(-n2nc(C)c3c(C)cc(=O)n(CC(=O)NCc4ccc(OC(C)C)cc4)c32)cc1", "outcome": "inactive"}
{"smiles": "COc1ccc(F)cc1NC(=O)C1CCN(c2nc(-c3ccc(OC)c(OC)c3)no2)CC1", "activity change, negative = inhibition": "inactive: -12.9%"}
{"smiles": "FC(F)(F)c1ccc(C2=Nc3ccccc3NC(c3cccs3)=N2)cc1", "activity change, negative = inhibition": "inactive: -16.8%"}
{"smiles": "Cc1cccc2c1-c1sc(C(=O)NCCCN3CCN(c4cccc(Cl)c4)CC3)cc1CO2", "activity change, negative = inhibition": "inactive: -1.38%"}
{"smiles": "Fc1ccc(-n2ncc3c(Nc4ccc(Oc5ccccc5)cc4)ncnc32)cc1", "outcome": "inactive"}
{"smiles": "Cc1ccc(OCC(=O)Nc2c(Cl)ccc3nsnc23)cc1C", "outcome": "inactive"}
{"smiles": "Cc1ccc(NC(=O)c2ccc(=O)n(CC(=O)Nc3cc(C)cc(C)c3)n2)cc1", "activity change, negative = inhibition": "inactive: 4.96%"}
{"smiles": "Cc1ccc2nc(NCCN)c3ncc(C)n3c2c1", "activity change, negative = inhibition": "inactive: 41.7%"}
{"smiles": "COc1ccc(-c2noc(C(C)NC(=O)c3ccco3)n2)cc1", "note": "(stereo unspecified)", "outcome": "inactive"}
{"smiles": "Cn1c(C(=O)NCc2ccc(Cl)cc2)cc2c(=O)n(C)c3ccccc3c21", "outcome": "inactive"}
{"smiles": "COc1ccc(NC(=O)CCc2c(C)nc3c(-c4ccccc4)c(C)nn3c2C)cc1Cl", "outcome": "inactive"}
{"smiles": "Cc1ccc2c(c1)c1c(c(=O)n(-c3ccccc3C)c(=O)n1Cc1ccccc1F)n2C", "outcome": "inactive"}
{"smiles": "CC(=O)c1cccc(Nc2c3c(nc4nc(-c5cccs5)nn24)CCCC3)c1", "activity change, negative = inhibition": "inactive: 4.27%"}
{"smiles": "CCCN1CCN(CCCNC(=O)c2cnn(-c3ccc(C)cc3)c2-n2cccc2)CC1", "activity change, negative = inhibition": "inactive: -0.45%"}
{"smiles": "COc1cc(C(c2c(C)[nH][nH]c2=O)c2c(C)[nH][nH]c2=O)ccc1OC(=O)c1ccccc1F", "activity change, negative = inhibition": "inactive: 0.173%"}
{"smiles": "CC(=O)Nc1cccc(-c2nnc(SCC(=O)c3cc([N+](=O)[O-])ccc3Br)o2)c1", "activity change, negative = inhibition": "inactive: -0.835%"}
{"smiles": "Cc1c(NC(=O)OC[C@@H]2COCCN2)cn2ncnc(Nc3ccc4c(cnn4Cc4cccc(F)c4)c3)c12", "activity change, negative = inhibition": "inactive: -15.3%"}
{"smiles": "Cc1ccc(CNC(=O)C2CCN(c3nc4ccc(C)cc4[nH]3)CC2)cc1", "outcome": "inactive"}
{"smiles": "CCCC(=O)Nc1cccc(-c2nc3cc(C)c(C)cc3o2)c1C", "activity change, negative = inhibition": "inactive: 10.1%"}
{"smiles": "COC(=O)c1ccc2oc(=O)c(S(=O)(=O)c3ccc(C)cc3)cc2c1", "activity change, negative = inhibition": "inactive: -2.72%"}
{"smiles": "CC(=O)Nc1ccc(NC(=O)CSc2nnc3c4cc(Br)ccc4n(C)c3n2)cc1", "activity change, negative = inhibition": "inactive: -7.77%"}
{"smiles": "COc1ccc(CNC(=O)c2ccc(Sc3ccc(Cl)cc3)c(NC(C)=O)c2)c(OC)c1", "outcome": "inactive"}
{"smiles": "O=C(CCc1ccc(O)cc1)c1c(O)cc(O)cc1O[C@@H]1O[C@H](CO)[C@H](O)[C@H](O)[C@H]1O", "activity change, negative = inhibition": "inactive: -15.5%"}
{"smiles": "COc1cc(OC)c(NC(=O)c2cnc(N3CCCC3)nc2C)cc1Cl", "activity change, negative = inhibition": "inactive: 0.796%"}
{"smiles": "CCSc1ncc(Cl)c(C(=O)Nc2sc(C(C)=O)c(C)c2C(=O)OC)n1", "activity change, negative = inhibition": "inactive: 2.19%"}
